According to the supplement of paper PMC4967469:
Lines with a small IC50 respond at low doses; fits outside the tested doses are given as limits. The AUC spans the tested range (256-fold, ending at the top dose) of the same fit; it is 1 without any effect and falls as sensitivity rises. For some of these results: Where the top dose is marked as inferred, it was calculated from the reported fits. For some of these results: Drugs with an entry number were screened twice under separate entries, and the two screens often disagree.

Columns and labels:
Assay in all cases: Viability of human cancer cell lines after 72 h of drug (GDSC screen)
Epothilone B = compound: C/C(=C\c1csc(C)n1)[C@@H]1C[C@@H]2O[C@]2(C)CCC[C@H](C)[C@H](O)[C@@H](C)C(=O)C(C)(C)[C@@H](O)CC(=O)O1 [Epothilone B]; details: top dose 0.032 µM; top dose inferred
Experimental: (§1)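 Human cancer cell lines in 384-well plates, medium with 10% serum, drug for 72 h over a 256-fold dose range (nine 2-fold or five 4-fold steps up to the top dose). Adherent lines were fixed and stained with the nucleic acid dye Syto60, suspension lines read with resazurin; signal relative to control wells, capped at 0 and 100%. One two-parameter sigmoid per drug and line, fitted in a mixed model over all curves with the slope shared within a line.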

PHA-793887 = compound: CC(C)CC(=O)Nc1n[nH]c2c1CN(C(=O)C1CCN(C)CC1)C2(C)C [PHA-793887]; details: top dose 10.24 µM
Experimental: as §1

PLX4720 = compound: CCCS(=O)(=O)Nc1ccc(F)c(C(=O)c2c[nH]c3ncc(Cl)cc23)c1F [PLX4720]; details: top dose 10 µM
Experimental: as §1

Pyrimethamine = compound: CCc1nc(N)nc(N)c1-c1ccc(Cl)cc1 [Pyrimethamine]; details: top dose 20 µM; top dose inferred
Experimental: as §1

AZD-0530 = compound: CN1CCN(CCOc2cc(OC3CCOCC3)c3c(Nc4c(Cl)ccc5c4OCO5)ncnc3c2)CC1 [AZD-0530]; details: top dose 2 µM
Experimental: as §1

Y-39983 = compound: C[C@@H](N)c1ccc(C(=O)Nc2ccnc3[nH]ccc23)cc1 [Y-39983]; details: top dose 20 µM; top dose inferred
Experimental: as §1

TPCA-1 = compound: NC(=O)Nc1sc(-c2ccc(F)cc2)cc1C(N)=O [TPCA-1]; details: top dose 20 µM
Experimental: as §1

[1] = screen: GDSC drug entry 1371, top dose inferred

Row | Cell Line | AUC (Epothilone B) | IC50 (Epothilone B) [µM] | AUC (PHA-793887) | IC50 (PHA-793887) [µM] | AUC (PLX4720; screen: GDSC drug entry 1036) | IC50 (PLX4720; screen: GDSC drug entry 1036) [µM] | AUC (PLX4720; [1]) | IC50 (PLX4720; [1]) [µM] | AUC (Pyrimethamine) | IC50 (Pyrimethamine) [µM] | AUC (AZD-0530) | IC50 (AZD-0530) [µM] | AUC (Y-39983) | IC50 (Y-39983) [µM] | AUC (TPCA-1) | IC50 (TPCA-1) [µM]
1 | NCI-H720 (lung carcinoid, suspension) | 0.989 | > 0.032 | 0.991 | > 10.2 | 0.992 | > 10 | 0.989 | > 10 | 0.897 | > 20 | 0.971 | > 2 | 0.986 | > 20 | 0.98 | > 20
2 | NCI-H747 (large intestine, adherent) | 0.522 | 0.00233 | 0.745 | 3.84 | 0.982 | > 10 | 0.978 | > 10 | 0.951 | > 20 | 0.856 | > 2 | 0.914 | > 20 | 0.848 | > 20
3 | NCI-H847 (small cell lung carcinoma, adherent) | 0.336 | 0.000774 | 0.305 | 0.206 | 0.981 | > 10 | 0.991 | > 10 | 0.946 | > 20 | 0.993 | > 2 | 0.756 | 5.68 | 0.42 | 0.788
4 | NCI-H1092 (small cell lung carcinoma, suspension) | 0.944 | > 0.032 | 0.89 | > 10.2 | 0.986 | > 10 | 0.974 | > 10 | 0.979 | > 20 | 0.985 | > 2 | 0.941 | > 20 | 0.932 | > 20
5 | NCI-H1155 (large cell lung carcinoma, suspension) | 0.923 | > 0.032 | 0.993 | > 10.2 | 0.954 | > 10 | 0.981 | > 10 | 0.979 | > 20 | 0.993 | > 2 | 0.953 | > 20 | 0.858 | 12
6 | NCI-H1299 (large cell lung carcinoma, adherent) | 0.416 | 0.00111 | 0.983 | > 10.2 |  |  | 0.898 | > 10 | 0.931 | > 20 | 0.935 | > 2 | 0.959 | > 20 | 0.861 | > 20
7 | NCI-H1304 (small cell lung carcinoma, suspension) | 0.788 | 0.0152 | 0.865 | > 10.2 | 0.937 | > 10 | 0.986 | > 10 | 0.904 | > 20 | 0.984 | > 2 | 0.981 | > 20 | 0.987 | > 20
8 | NCI-H1355 (lung adenocarcinoma, adherent) | 0.423 | 0.00112 | 0.977 | > 10.2 | 0.969 | > 10 | 0.971 | > 10 | 0.953 | > 20 | 0.916 | > 2 | 0.978 | > 20 | 0.961 | > 20
9 | NCI-H1395 (lung adenocarcinoma, adherent) | 0.932 | > 0.032 | 0.888 | > 10.2 | 0.978 | > 10 | 0.966 | > 10 | 0.854 | > 20 | 0.927 | > 2 | 0.953 | > 20 | 0.931 | > 20
10 | NCI-H1417 (small cell lung carcinoma, suspension) | 0.765 | 0.0139 | 0.793 | 5.68 | 0.86 | > 10 | 0.888 | > 10 | 0.913 | > 20 | 0.962 | > 2 | 0.895 | > 20 | 0.903 | > 20
11 | NCI-H1581 (large cell lung carcinoma, semi-adherent) | 0.887 | 0.0306 | 0.789 | 4.13 |  |  | 0.989 | > 10 | 0.973 | > 20 | 0.988 | > 2 | 0.978 | > 20 | 0.921 | > 20
12 | NCI-H1648 (lung adenocarcinoma, adherent) | 0.41 | 0.00111 | 0.728 | 2.98 | 0.853 | 8.54 | 0.976 | > 10 | 0.979 | > 20 | 0.64 | 0.312 | 0.985 | > 20 | 0.905 | > 20
13 | NCI-H1666 (lung adenocarcinoma, semi-adherent) | 0.956 | > 0.032 | 0.932 | > 10.2 |  |  | 0.845 | 8.26 | 0.907 | > 20 | 0.981 | > 2 | 0.987 | > 20 | 0.968 | > 20
14 | NCI-H1770 (non-small cell lung carcinoma, suspension) | 0.365 | 0.000895 | 0.984 | > 10.2 | 0.99 | > 10 | 0.977 | > 10 | 0.939 | > 20 | 0.992 | > 2 | 0.982 | > 20 | 0.87 | 14.8
15 | NCI-H1836 (small cell lung carcinoma, suspension) | 0.893 | > 0.032 | 0.676 | 2.1 | 0.988 | > 10 | 0.91 | > 10 | 0.952 | > 20 | 0.975 | > 2 | 0.984 | > 20 | 0.979 | > 20
16 | NCI-H1838 (lung adenocarcinoma, adherent) | 0.979 | > 0.032 | 0.983 | > 10.2 | 0.951 | > 10 | 0.985 | > 10 | 0.975 | > 20 | 0.974 | > 2 | 0.968 | > 20 | 0.949 | > 20

Row | Cell Line | AUC (Epothilone B) | IC50 (Epothilone B) [µM] | AUC (PHA-793887) | IC50 (PHA-793887) [µM] | AUC (PLX4720; screen: GDSC drug entry 1036) | IC50 (PLX4720; screen: GDSC drug entry 1036) [µM] | AUC (PLX4720; [1]) | IC50 (PLX4720; [1]) [µM] | AUC (Pyrimethamine) | IC50 (Pyrimethamine) [µM] | AUC (AZD-0530) | IC50 (AZD-0530) [µM] | AUC (Y-39983) | IC50 (Y-39983) [µM] | AUC (TPCA-1) | IC50 (TPCA-1) [µM]
17 | NCI-H1869 (lung squamous cell carcinoma, adherent) | 0.907 | > 0.032 | 0.832 | 7.71 | 0.82 | 6.73 | 0.974 | > 10 | 0.979 | > 20 | 0.895 | > 2 | 0.944 | > 20 | 0.84 | 16.5
18 | NCI-H1876 (small cell lung carcinoma, adherent) | 0.972 | > 0.032 | 0.704 | 2.42 | 0.77 | 3.84 | 0.969 | > 10 | 0.966 | > 20 | 0.987 | > 2 | 0.969 | > 20 | 0.888 | > 20
19 | NCI-H1975 (lung adenocarcinoma, adherent) | 0.458 | 0.00151 | 0.767 | 4.36 | 0.975 | > 10 | 0.927 | > 10 | 0.869 | > 20 | 0.871 | > 2 | 0.849 | 18.5 | 0.822 | 14
20 | NCI-H2141 (small cell lung carcinoma, suspension) | 0.774 | 0.0122 | 0.926 | > 10.2 | 0.983 | > 10 | 0.99 | > 10 | 0.99 | > 20 | 0.984 | > 2 | 0.99 | > 20 | 0.987 | > 20
21 | NCI-SNU-1 (stomach, suspension) | 0.842 | 0.0237 | 0.657 | 1.78 | 0.957 | > 10 | 0.987 | > 10 | 0.838 | 14.1 | 0.944 | > 2 | 0.834 | 13.7 | 0.848 | 15.6
22 | NCI-SNU-5 (stomach, suspension) | 0.89 | > 0.032 | 0.959 | > 10.2 | 0.985 | > 10 | 0.978 | > 10 | 0.954 | > 20 | 0.987 | > 2 | 0.989 | > 20 | 0.989 | > 20
23 | NCI-SNU-16 (stomach, suspension) | 0.914 | > 0.032 | 0.93 | > 10.2 | 0.97 | > 10 | 0.968 | > 10 | 0.959 | > 20 | 0.991 | > 2 | 0.991 | > 20 | 0.936 | > 20
24 | NKM-1 (acute myeloid leukaemia, suspension) | 0.502 | 0.00202 | 0.22 | 0.0947 | 0.984 | > 10 | 0.958 | > 10 | 0.914 | > 20 | 0.976 | > 2 | 0.845 | 15.1 | 0.597 | 2.33
25 | NMC-G1 (glioma, adherent) | 0.464 | 0.00156 | 0.73 | 3.4 | 0.877 | > 10 | 0.837 | 8.98 | 0.959 | > 20 | 0.896 | > 2 | 0.977 | > 20 | 0.833 | 17.2
26 | NOMO-1 (acute myeloid leukaemia, suspension) | 0.686 | 0.00717 | 0.58 | 1.09 | 0.982 | > 10 | 0.979 | > 10 | 0.876 | > 20 | 0.972 | > 2 | 0.697 | 4.84 | 0.486 | 1.14
27 | NOS-1 (osteosarcoma, adherent) | 0.557 | 0.00297 | 0.576 | 1.09 | 0.872 | > 10 |  |  | 0.703 | 5.4 | 0.737 | 0.704 | 0.949 | > 20 | 0.516 | 1.4
28 | NTERA-2 cl.D1 (testis, adherent) | 0.373 | 0.000895 | 0.897 | > 10.2 |  |  | 0.592 | 1.12 | 0.957 | > 20 | 0.985 | > 2 | 0.942 | > 20 | 0.861 | 16.7
29 | NU-DUL-1 (B-cell lymphoma, suspension) | 0.688 | 0.00594 | 0.214 | 0.116 | 0.939 | > 10 | 0.99 | > 10 | 0.985 | > 20 | 0.94 | > 2 | 0.774 | 6.35 | 0.382 | 0.636
30 | OCI-AML2 (acute myeloid leukaemia, suspension) | 0.578 | 0.0031 | 0.739 | 2.47 | 0.981 | > 10 | 0.975 | > 10 | 0.812 | 7.52 | 0.995 | > 2 | 0.601 | 2.2 | 0.513 | 1.34
31 | OCI-AML3 (acute myeloid leukaemia, suspension) | 0.605 | 0.00371 | 0.507 | 0.668 | 0.984 | > 10 | 0.99 | > 10 | 0.983 | > 20 | 0.987 | > 2 | 0.969 | > 20 | 0.684 | 3.76
32 | OCI-AML5 (acute myeloid leukaemia, suspension) | 0.632 | 0.00445 | 0.523 | 0.736 | 0.989 | > 10 | 0.988 | > 10 | 0.989 | > 20 | 0.988 | > 2 | 0.879 | 17.5 | 0.464 | 1.01
